Several values for one entry are separate records, joined by “and”; a condition that tells them apart may be missing. Equal values may be shown once. This list was built around the results that the source calls inconclusive (neither active nor inactive); the mix of calls is not that of the screen. For part of these data: A potency beside an inconclusive call is a rough fit, not a confirmed value. More than one record can exist for a structure, and the calls need not agree. Activity calls are given as the source filed them. Unless noted, calls come from the whole dose curve; as a rule, active = well fitted curve in the direction sought with a large enough effect in the repeat runs; inconclusive = weak or mixed curves; inactive = no such curve, though single readings can be large; an effect the other way counts as inactive or inconclusive.
Tests used:
[1] = qHTS RealTime-Glo MT Cell Viability Assay in HepG2 cells - 16 hour (AID 1224885); note: nearly all actives have a fitted effect of over 50% in size
Outline: (§1)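 Tox21 10K library screened in qHTS format on HepG2 cells carrying RealTime-Glo reagents. Compounds were added after a 5 h preincubation, and the luminescent signal from continuous culture was measured repeatedly during 40 h treatment.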

[2] = qHTS assay to identify small molecule antagonists of the androgen receptor (AR) signaling pathway using the MDA cell line in the presence of 0.5 nM R1881 - cell viability counter screen (AID 1259242); note: nearly all actives have a fitted effect of over 45% in size
Outline: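 MDA-kb2 cells (MMTV-luciferase, AR/GR responsive) were treated with compounds plus 0.5 nM R1881 (final) for 16 hr at 37C, 0% CO2. Viability was then read in the same wells as live-cell protease fluorescence (CellTiter-Fluor, 30 min).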

[3] = target: Androgen receptor (Homo sapiens) (UniProt P10275); assay: qHTS assay to identify small molecule antagonists of the androgen receptor (AR) signaling pathway using the MDA cell line in the presence of 0.5 nM R1881 (AID 1259243); note: nearly all actives have a fitted effect of over 50% in size; for activity, negative = inhibition: % is set by controls: 0 for no effect and ±100 for the full control effect
UniProt P10275, sequence (P10275 whole entry, looked up): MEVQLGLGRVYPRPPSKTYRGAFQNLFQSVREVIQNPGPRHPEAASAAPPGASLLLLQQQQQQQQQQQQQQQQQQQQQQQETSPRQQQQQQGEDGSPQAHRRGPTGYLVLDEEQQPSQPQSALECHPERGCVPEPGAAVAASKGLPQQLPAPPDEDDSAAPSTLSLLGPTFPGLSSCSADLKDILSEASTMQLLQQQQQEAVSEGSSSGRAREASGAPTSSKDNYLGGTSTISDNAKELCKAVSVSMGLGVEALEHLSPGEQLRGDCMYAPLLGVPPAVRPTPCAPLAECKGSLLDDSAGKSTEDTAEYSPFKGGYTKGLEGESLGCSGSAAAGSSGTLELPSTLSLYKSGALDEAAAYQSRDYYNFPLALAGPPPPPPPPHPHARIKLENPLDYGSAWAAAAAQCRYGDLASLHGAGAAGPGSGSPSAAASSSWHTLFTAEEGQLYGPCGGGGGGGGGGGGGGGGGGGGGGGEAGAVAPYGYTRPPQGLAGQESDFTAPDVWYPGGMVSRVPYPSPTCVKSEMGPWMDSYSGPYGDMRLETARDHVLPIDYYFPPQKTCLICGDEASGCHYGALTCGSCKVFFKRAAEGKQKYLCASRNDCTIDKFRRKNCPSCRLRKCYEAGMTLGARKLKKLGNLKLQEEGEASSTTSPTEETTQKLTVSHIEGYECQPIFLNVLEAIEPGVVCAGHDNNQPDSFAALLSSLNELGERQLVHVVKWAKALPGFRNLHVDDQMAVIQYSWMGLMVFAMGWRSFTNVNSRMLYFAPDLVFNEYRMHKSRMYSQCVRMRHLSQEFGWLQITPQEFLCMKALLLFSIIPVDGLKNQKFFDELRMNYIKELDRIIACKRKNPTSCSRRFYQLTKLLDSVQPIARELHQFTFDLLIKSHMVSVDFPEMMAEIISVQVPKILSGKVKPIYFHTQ
Outline: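 MDA-kb2 cells (MMTV-luciferase, responsive to AR and GR) at 3,000/well, rested 5 h at 37C, 0% CO2, then given compounds plus 0.5 nM R1881 (final) for 16 hr. Luciferase read with ONE-Glo after 30 min at room temperature.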

[4] = qHTS assay to identify small molecule agonists of the sonic hedgehog signaling (Shh) pathway - cell viability counter screen (AID 1259366); note: nearly all actives have a fitted effect of over 50% in size
Outline: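 Cytotoxicity counter screen run in the same wells as the Shh reporter assay. NIH/3T3 cells carrying a Gli1 response element–driven luciferase were treated with DMSO-dissolved compounds for 24hr, and live-cell protease activity was measured with CellTiter-Fluor.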

[5] = qHTS assay to identify small molecule agonists of the androgen receptor (AR) signaling pathway in the presence of an antagonist - cell viability counter screen (AID 1259379); note: nearly all actives have a fitted effect of over 25% in size
Outline: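 MDA-kb2 cells (MMTV-luciferase, AR/GR), 3,000/well, 5 h attachment, then 3.0 µM nilutamide (final) and compounds at 15 concentrations. Viability by CellTiter-Fluor fluorescence after 16 h at 37 °C, 0% CO2, in the reporter wells.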

[6] = A CellTox Green Cytotoxicity Assay to monitor cytotoxicity in HepG2 cells - 8 hour (AID 1224890); note: nearly all actives have a fitted effect of over 45% in size
Outline: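 HepG2 cells, 600/well, preincubated 5 h with CellTox Green dye, then exposed to Tox21 compounds in DMSO at 37 C for up to 40 h. Dead-cell DNA fluorescence read at the indicated time point.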

[7] = qHTS assay to identify small molecule antagonists of the sonic hedgehog signaling (Shh) pathway (AID 1259369; calls by dose curve; note: nearly all actives have a fitted effect of over 45% in size)
Outline: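 NIH/3T3-derived Gli1-Luc reporter cells plated 4 h, dosed with compound, then stimulated with conditioned medium for 24 h at 37 C. Firefly luciferase luminescence read after 30 min with detection reagent at room temperature.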

[8] = target: Estrogen receptor beta (Homo sapiens) (UniProt Q92731); assay: qHTS assay to identify small molecule antagonists of the estrogen receptor beta (ER-beta) signaling pathway (AID 1259378; active = well fitted inhibition curve with a large enough effect in the signal ratio in the repeat runs, not every such curve was filed as active; inconclusive = weak or mixed curves, or effect the other way; inactive = no such curve, though single readings can be large or run the other way; the % refers to the signal ratio; for activity, negative = inhibition: % is set by controls: 0 for no effect and ±100 for the full control effect); settings: ER-beta-UAS-bla HEK293T, beta-lactamase FRET ratio, 16 h; activity, negative = inhibition: at 92.4 µM (top of the series) unless noted
UniProt Q92731, sequence (Q92731 whole entry, looked up): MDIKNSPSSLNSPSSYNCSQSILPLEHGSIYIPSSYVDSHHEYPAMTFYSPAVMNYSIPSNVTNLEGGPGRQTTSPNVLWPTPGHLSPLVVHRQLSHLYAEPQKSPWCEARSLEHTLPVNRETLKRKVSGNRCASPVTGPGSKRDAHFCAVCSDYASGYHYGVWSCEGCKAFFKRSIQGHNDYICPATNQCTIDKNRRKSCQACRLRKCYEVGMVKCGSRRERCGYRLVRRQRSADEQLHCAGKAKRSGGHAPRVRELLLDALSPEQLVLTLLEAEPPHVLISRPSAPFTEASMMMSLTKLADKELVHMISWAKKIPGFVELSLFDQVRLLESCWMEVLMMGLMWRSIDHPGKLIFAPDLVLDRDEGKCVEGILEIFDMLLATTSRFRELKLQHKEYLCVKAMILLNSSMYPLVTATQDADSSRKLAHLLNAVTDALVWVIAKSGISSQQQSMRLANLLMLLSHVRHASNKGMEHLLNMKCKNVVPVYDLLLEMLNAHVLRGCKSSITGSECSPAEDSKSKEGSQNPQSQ
Outline: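 Antagonist mode: compounds added to beta-lactamase reporter HEK293T ER-beta-UAS cells stimulated with E2 (1nM final), 16 hr at 37C. LiveBLAzer B/G FRET substrate, 2 hours room temperature, fluorescence read-out.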

[9] = qHTS RealTime-Glo MT Cell Viability Assay in HepG2 cells - 0 hour (AID 1224889); note: nearly all actives have a fitted effect of over 50% in size
Outline: as §1

[10] = qHTS assay to identify small molecule HDAC inhibitors (AID 1259364); note: nearly all actives have a fitted effect of over 45% in size
Outline: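 Wild-type HCT-116 cells, plated overnight at 37 C, exposed to compounds 2 hr at 37 C; luminogenic HDAC-Glo substrate then added 30 min at room temperature. Luminescence reports relative endogenous class I/II HDAC activity.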

[11] = target: Estrogen receptor beta (Homo sapiens) (UniProt Q92731); assay: qHTS assay to identify small molecule agonists of the estrogen receptor beta (ER-beta) signaling pathway (AID 1259377; active = well fitted activation curve with a large enough effect in the signal ratio in the repeat runs, not every such curve was filed as active; inconclusive = weak or mixed curves, or effect the other way; the % refers to the signal ratio; for activation: % is set by controls: 0 for no effect and ±100 for the full control effect); settings: ER-beta-UAS-bla HEK293T, beta-lactamase FRET ratio, 16 h; activation: at 92.4 µM (top of the series) unless noted
Outline: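 HEK293T ER-beta-UAS-bla; 2% charcoal-stripped FBS; cells pre-incubated 6 hr, compound 16 hr, 37C/5% CO2; LiveBLAzer B/G FRET substrate 2 h RT; fluorescence intensity read.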

[12] = qHTS RealTime-Glo MT Cell Viability Assay in HEK293 cells - 24 hour (AID 1224886); note: nearly all actives have a fitted effect of over 50% in size
Outline: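 Luminescence generated by NanoLuc from substrate produced by living HEK293 cells served as the viability signal. Each value reflects the reading at its stated time point during continuous 40 h compound exposure at 37 C.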

[13] = A CellTox Green Cytotoxicity Assay to monitor cytotoxicity in HEK293 cells - 16 hour (AID 1224888); note: nearly all actives have a fitted effect of over 35% in size
Outline: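 HEK293 cells, 600/well, were preincubated 5 hours and then exposed to compounds at 37 C for up to 40 hours. A cell-impermeant cyanine dye staining dead-cell DNA was read by fluorescence at 0, 8, 16, 24, 32 and 40 h time points.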

[14] = target: Estrogen receptor (Homo sapiens) (UniProt P03372); assay: qHTS assay to identify small molecule antagonists of the estrogen receptor alpha (ER-alpha) signaling pathway using the BG1 cell line in the presence of 0.1 nM 17-beta-estradiol (AID 1259244); note: nearly all actives have a fitted effect of over 50% in size
UniProt P03372, sequence (P03372 whole entry, looked up): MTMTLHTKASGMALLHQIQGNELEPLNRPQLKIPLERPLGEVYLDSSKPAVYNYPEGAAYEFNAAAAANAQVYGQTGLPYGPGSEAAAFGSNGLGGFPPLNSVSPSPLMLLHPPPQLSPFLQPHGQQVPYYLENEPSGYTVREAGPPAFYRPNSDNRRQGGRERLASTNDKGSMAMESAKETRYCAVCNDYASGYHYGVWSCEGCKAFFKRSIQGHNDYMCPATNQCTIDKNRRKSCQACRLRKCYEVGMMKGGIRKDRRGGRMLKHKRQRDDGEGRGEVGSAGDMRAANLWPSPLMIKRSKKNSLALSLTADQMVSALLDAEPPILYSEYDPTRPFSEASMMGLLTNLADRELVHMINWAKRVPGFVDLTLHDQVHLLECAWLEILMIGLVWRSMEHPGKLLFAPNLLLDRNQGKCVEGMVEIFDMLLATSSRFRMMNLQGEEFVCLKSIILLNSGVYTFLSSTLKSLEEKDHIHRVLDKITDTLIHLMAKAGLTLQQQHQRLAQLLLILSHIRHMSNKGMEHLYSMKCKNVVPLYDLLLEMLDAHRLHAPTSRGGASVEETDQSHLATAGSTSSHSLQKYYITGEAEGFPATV
Outline: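 VM7Luc4E2 cells (endogenous full-length ER-alpha, 4×ERE-luciferase), kept 5 days in phenol red-free, charcoal-stripped FBS medium; 4,000 cells/well. Compounds added with 0.1 nM (final) 17beta-estradiol, 22 hr at 37C; luminescence read with ONE-Glo after 30 min.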

[15] = qHTS assay to identify small molecule antagonists of the estrogen receptor alpha (ER-alpha) signaling pathway using the BG1 cell line in the presence of 0.1 nM 17-beta-estradiol - cell viability counter screen (AID 1259241); note: nearly all actives have a fitted effect of over 40% in size
Outline: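 VM7Luc4E2, 4,000 cells/well, phenol red-free medium + 10% charcoal-stripped FBS; 24 hr plating; cpd + 0.1 nM E2 final, 22 hr 37C/5% CO2; CellTiter-Fluor 30 min, fluorescence.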

[16] = qHTS assay to identify small molecule antagonists of the sonic hedgehog signaling (Shh) pathway - cell viability counter screen (AID 1259367); note: nearly all actives have a fitted effect of over 55% in size
Outline: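 Using CellTiter-Fluor, viability of Gli1-Luc reporter 3T3 cells is read by fluorescence in the wells used for the Shh luciferase assay. Treatment lasts 23 hr with conditioned medium, then reagent 1 hr at 37C.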

[17] = qHTS assay to identify small molecule HDAC inhibitors - cell viability counter screen (AID 1259365); note: nearly all actives have a fitted effect of over 50% in size
Outline: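 Luminescence from CellTiter-Glo, developed 30min at room temperature, reports viability of wild-type HCT-116 cells treated 2hr with compounds at 37 C and 5% CO2 after overnight plating.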

[18] = qHTS RealTime-Glo MT Cell Viability Assay in HEK293 cells - 8 hour (AID 1224887); note: nearly all actives have a fitted effect of over 50% in size
Outline: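 600 cells/well were plated with the nonlytic NanoLuc/prosubstrate reagent, pre-incubated 5 h, then given 23 nL of compound in DMSO. Incubation at 37 C for 40 h, with luminescence from viable-cell-reduced substrate read repeatedly from 0 h.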
Potency is the fitted concentration of half-maximal effect; tags give direction and shape of the fitted curve or compound fluorescence and quenching.

Cc1cc(C(C)(C)c2cc(C)c(O)c(C)c2)cc(C)c1O
Potency [1]: inconclusive: 53.1 µM [cytotoxic, partial curve, poor fit]
Potency [2]: inactive
Potency [3]: inconclusive: 3.73 µM [inhibitor, partial curve, poor fit]
Potency [4]: inconclusive: 66.3 µM [cytotoxic, single point]
Potency [5]: inconclusive: 66.3 µM [cytotoxic]

CC(C)c1cccc(C(C)C)c1O
Potency [1]: inconclusive: 38.9 µM [cytotoxic, partial curve]
Potency [6]: inconclusive: 54.8 µM [activator, single point]
Potency [7]: inconclusive: 0.243 µM [inhibitor, single point]
activity, negative = inhibition [8]: inconclusive: 1.24% [at 42.5 µM]

N#CC(C#N)=NNc1cccc(Cl)c1
Potency [1]: inconclusive: 15.5 µM [cytotoxic, partial curve]
Potency [9]: active: 24.5 µM
Potency [2]: active: 2.43 µM
Potency [3]: active: 1.54 µM
Potency [10]: active: 24.3 µM
activation [11]: inconclusive: -14.9%
Potency [8]: inconclusive: 0.969 µM [rising, full curve]

CCOC(=O)CC(SP(=S)(OC)OC)C(=O)OCC (configuration not stated)
Potency [1]: inconclusive: 54.9 µM [cytotoxic, partial curve, poor fit]
Potency [9]: inconclusive: 54.9 µM [cytotoxic, partial curve, poor fit]
Potency [6]: inconclusive: 30.1 µM [activator, single point]
Potency [3]: inactive
Potency [7]: inconclusive: 24.3 µM [inhibitor, full curve]

COP(=O)(OC)C(O)C(Cl)(Cl)Cl (configuration not stated)
Potency [12]: inconclusive: 49.4 µM [rising, single point]

Clc1ccc(C(Cl)(Cl)Cl)cc1Cl
Potency [1]: inconclusive: 53.8 µM [cytotoxic, single point]
Potency [13]: active: 38.1 µM
Potency [6]: active: 47.9 µM
Potency [14]: inconclusive: 37.7 µM [inhibitor, partial curve, poor fit]
Potency [5]: inconclusive: 67.1 µM [cytotoxic, single point]

CCCCCCCCn1sccc1=O
Potency [1]: active: 43.7 µM and active: 16.2 µM
Potency [13]: inconclusive: 55.1 µM [activator, single point] and active: 51.3 µM
Potency [6]: inconclusive: 55.1 µM [activator, single point]
Potency [15]: inconclusive: 68.7 µM [cytotoxic, single point] and inconclusive: 64.1 µM [cytotoxic, single point]
Potency [2]: inconclusive: 61.3 µM [cytotoxic] and inconclusive: 71.9 µM [cytotoxic]
Potency [14]: active: 30.7 µM and inconclusive: 71.9 µM [inhibitor, single point]
Potency [4]: active: 4.34 µM and active: 3.21 µM
Potency [16]: active: 4.34 µM and inconclusive: 1.28 µM [cytotoxic, full curve, poor fit]
Potency [7]: active: 1.37 µM and active: 1.02 µM
Potency [11]: inconclusive: 24.4 µM [rising, single point]
Potency [8]: active: 27.4 µM and active: 32.1 µM

COc1ccc(C(CN(C)C)C2(O)CCCCC2)cc1 (configuration not stated)
Potency [1]: inconclusive: 21.9 µM [cytotoxic, single point]
Potency [9]: inconclusive: 21.9 µM [cytotoxic, single point]

Cc1ccc(N(SC(F)(Cl)Cl)S(=O)(=O)N(C)C)cc1
Potency [1]: active: 15.5 µM
Potency [2]: inconclusive: 21.7 µM [cytotoxic, full curve]
Potency [17]: inconclusive: 68.6 µM [cytotoxic, partial curve, poor fit]
Potency [4]: active: 4.86 µM
Potency [7]: active: 2.73 µM
Potency [8]: active: 13.7 µM

CCCCNC(=O)n1c(NC(=O)OC)nc2ccccc21
Potency [12]: inconclusive: 9.72 µM [cytotoxic, full curve]
Potency [18]: inconclusive: 43.4 µM [cytotoxic, partial curve]
Potency [15]: inconclusive: 68.2 µM [cytotoxic, single point]
Potency [14]: inconclusive: 76.6 µM [inhibitor, single point]
Potency [10]: active: 21.6 µM and active: 19.3 µM
Potency [4]: inconclusive: 68.2 µM [cytotoxic, single point]
Potency [16]: active: 60.8 µM
Potency [7]: active: 30.5 µM
Potency [11]: inconclusive: 60.8 µM [fluorescent, partial curve]
activation [11]: inconclusive: 11.5%
Potency [8]: inconclusive: 68.2 µM [single point]
